Among the data in PMC12820563 are binding signal (RPM ratio (pull-down/input)) values, retold here.

The list shows a part of the results. The list includes weakly bound sequences.

In this assay the target is T1, MBP-FoxP3dN (UniProt Q99JB6).
T1 sequence: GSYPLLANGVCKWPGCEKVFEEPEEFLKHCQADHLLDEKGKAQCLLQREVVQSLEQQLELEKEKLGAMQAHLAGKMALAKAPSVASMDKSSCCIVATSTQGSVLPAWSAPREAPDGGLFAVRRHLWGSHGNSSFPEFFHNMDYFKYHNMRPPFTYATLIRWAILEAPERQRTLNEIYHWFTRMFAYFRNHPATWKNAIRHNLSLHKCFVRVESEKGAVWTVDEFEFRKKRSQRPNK
Nature of the assay: PD-seq (MBP pull-down with sequencing). The conditions noted are these: 20 mM Tris-HCl pH 7.5, 100 mM NaCl, 1.5 mM MgCl2, 0.4 uM protein, 0.1 uM dsDNA library, 30 min, room temperature, amylose pull-down; high values mean tight binding; double strand, one strand shown.
With “GATGATTGTTCTCCCAGCTGATGAATTTATCCTATCGAGTAAACAAATTTTCCTAATCTTTCTGTTCAAGCGCCATCTAC”, the binding signal (RPM ratio (pull-down/input)) is 0.872.
In the case of “GATGATTGTTCTCCCAGCTGATGAATTGGCTTTGTCGAGTAAACAAATTTTCCTAATCTTTCTGTTCAAGCGCCATCTAC” it was 1.71; in that of “GATGATTGTTCTCCCAGCTGATGAATTGAAAAACTCGAGTAAACAAATTTTCCTAATCTTTCTGTTCAAGCGCCATCTAC”, 0.215; in that of “GATGATTGTTCTCCCAGCTGATGAATTCCAGCCGTCGAGTAAACAAATTTTCCTAATCTTTCTGTTCAAGCGCCATCTAC”, 0.342.
Then “GATGATTGTTCTCCCAGCTGATGAATTACTAGAGTCGAGTAAACAAATTTTCCTAATCTTTCTGTTCAAGCGCCATCTAC”, with 0.28; and “GATGATTGTTCTCCCAGCTGATGAATTTATTTACTCGAGTAAACAAATTTTCCTAATCTTTCTGTTCAAGCGCCATCTAC”, with 6.74.
As for “GATGATTGTTCTCCCAGCTGATGAATTCTTCGACTCGAGTAAACAAATTTTCCTAATCTTTCTGTTCAAGCGCCATCTAC”, the binding signal (RPM ratio (pull-down/input)) came to 0.239.
Then “GATGATTGTTCTCCCAGCTGATGAATTTGGTACTTCGAGTAAACAAATTTTCCTAATCTTTCTGTTCAAGCGCCATCTAC”, with 0.725; and “GATGATTGTTCTCCCAGCTGATGAATTACTTCTGTCGAGTAAACAAATTTTCCTAATCTTTCTGTTCAAGCGCCATCTAC”, with 0.296; and “GATGATTGTTCTCCCAGCTGATGAATTCCTAGCCTCGAGTAAACAAATTTTCCTAATCTTTCTGTTCAAGCGCCATCTAC”, with 0.345.
For the sequence “GATGATTGTTCTCCCAGCTGATGAATTCAAATTGTCGAGTAAACAAATTTTCCTAATCTTTCTGTTCAAGCGCCATCTAC”, the binding signal (RPM ratio (pull-down/input)) was determined as 0.581.
Then “GATGATTGTTCTCCCAGCTGATGAATTCCCTACATCGAGTAAACAAATTTTCCTAATCTTTCTGTTCAAGCGCCATCTAC”, with 0.31.
In the case of “GATGATTGTTCTCCCAGCTGATGAATTATGGCGCTCGAGTAAACAAATTTTCCTAATCTTTCTGTTCAAGCGCCATCTAC” it was 0.931; in that of “GATGATTGTTCTCCCAGCTGATGAATTGATAGCATCGAGTAAACAAATTTTCCTAATCTTTCTGTTCAAGCGCCATCTAC”, 1.26; in that of “GATGATTGTTCTCCCAGCTGATGAATTACCATGATCGAGTAAACAAATTTTCCTAATCTTTCTGTTCAAGCGCCATCTAC”, 0.334.
For “GATGATTGTTCTCCCAGCTGATGAATTTTTTGCGTCGAGTAAACAAATTTTCCTAATCTTTCTGTTCAAGCGCCATCTAC”, the binding signal (RPM ratio (pull-down/input)) is 0.525.
In the case of “GATGATTGTTCTCCCAGCTGATGAATTATTTCTCTCGAGTAAACAAATTTTCCTAATCTTTCTGTTCAAGCGCCATCTAC”, the binding signal (RPM ratio (pull-down/input)) is 0.353.
Then “GATGATTGTTCTCCCAGCTGATGAATTCACACATTCGAGTAAACAAATTTTCCTAATCTTTCTGTTCAAGCGCCATCTAC”, with 0.461; and “GATGATTGTTCTCCCAGCTGATGAATTATAGATTTCGAGTAAACAAATTTTCCTAATCTTTCTGTTCAAGCGCCATCTAC”, with 0.367.
Then “GATGATTGTTCTCCCAGCTGATGAATTCGTGTATTCGAGTAAACAAATTTTCCTAATCTTTCTGTTCAAGCGCCATCTAC”, with 2.95.
In the case of “GATGATTGTTCTCCCAGCTGATGAATTTTCATAGTCGAGTAAACAAATTTTCCTAATCTTTCTGTTCAAGCGCCATCTAC”, the binding signal (RPM ratio (pull-down/input)) was 0.271.
Turning to “GATGATTGTTCTCCCAGCTGATGAATTATGACCATCGAGTAAACAAATTTTCCTAATCTTTCTGTTCAAGCGCCATCTAC”, the binding signal (RPM ratio (pull-down/input)) came out at 0.696.
Then “GATGATTGTTCTCCCAGCTGATGAATTCTCTTAATCGAGTAAACAAATTTTCCTAATCTTTCTGTTCAAGCGCCATCTAC”, with 0.193; and “GATGATTGTTCTCCCAGCTGATGAATTGCACGAATCGAGTAAACAAATTTTCCTAATCTTTCTGTTCAAGCGCCATCTAC”, with 0.519; and “GATGATTGTTCTCCCAGCTGATGAATTAGTAGACTCGAGTAAACAAATTTTCCTAATCTTTCTGTTCAAGCGCCATCTAC”, with 0.847.
Consider “GATGATTGTTCTCCCAGCTGATGAATTCGAGGGATCGAGTAAACAAATTTTCCTAATCTTTCTGTTCAAGCGCCATCTAC”, for which the binding signal (RPM ratio (pull-down/input)) was 0.267.
Then “GATGATTGTTCTCCCAGCTGATGAATTTGCGCAATCGAGTAAACAAATTTTCCTAATCTTTCTGTTCAAGCGCCATCTAC”, with 3.76; and “GATGATTGTTCTCCCAGCTGATGAATTACCACATTCGAGTAAACAAATTTTCCTAATCTTTCTGTTCAAGCGCCATCTAC”, with 0.486.
In the case of “GATGATTGTTCTCCCAGCTGATGAATTCAAACGGTCGAGTAAACAAATTTTCCTAATCTTTCTGTTCAAGCGCCATCTAC” it was 0.276; in that of “GATGATTGTTCTCCCAGCTGATGAATTGAGGACTTCGAGTAAACAAATTTTCCTAATCTTTCTGTTCAAGCGCCATCTAC”, 0.391.
Consider “GATGATTGTTCTCCCAGCTGATGAATTCAGGAATTCGAGTAAACAAATTTTCCTAATCTTTCTGTTCAAGCGCCATCTAC”, for which the binding signal (RPM ratio (pull-down/input)) amounted to 0.513.
